The results in this text go back to PMC12820563.

Some of the results follow. The list includes weakly bound sequences.

In this test the target is T1, MBP-FoxP3dN (UniProt Q99JB6).
T1 sequence: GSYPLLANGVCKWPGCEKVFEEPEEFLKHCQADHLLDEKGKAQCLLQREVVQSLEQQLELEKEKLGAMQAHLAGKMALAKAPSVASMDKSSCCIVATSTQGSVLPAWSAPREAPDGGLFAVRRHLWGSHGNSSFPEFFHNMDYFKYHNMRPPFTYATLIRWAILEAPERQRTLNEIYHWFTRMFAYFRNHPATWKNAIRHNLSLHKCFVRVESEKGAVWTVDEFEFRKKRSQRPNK
The test is described as follows: PD-seq (MBP pull-down with sequencing). Particulars: 20 mM Tris-HCl pH 7.5, 100 mM NaCl, 1.5 mM MgCl2, 0.4 uM protein, 0.1 uM dsDNA library, 30 min, room temperature, amylose pull-down; high values mean tight binding; double strand, one strand shown.
Take “GATGATTGTTCTCCCAGCTGATGAATTATAGGGGTCGAGTAAACAAATTTTCCTAATCTTTCTGTTCAAGCGCCATCTAC”: the binding signal (RPM ratio (pull-down/input)) came to 0.335.

On to “GATGATTGTTCTCCCAGCTGATGAATTCAATACATCGAGTAAACAAATTTTCCTAATCTTTCTGTTCAAGCGCCATCTAC”, for which the binding signal (RPM ratio (pull-down/input)) was found to be 0.717.

On to “GATGATTGTTCTCCCAGCTGATGAATTTTCCCGTTCGAGTAAACAAATTTTCCTAATCTTTCTGTTCAAGCGCCATCTAC”, for which the binding signal (RPM ratio (pull-down/input)) worked out at 0.209.

Consider “GATGATTGTTCTCCCAGCTGATGAATTAACGGGTTCGAGTAAACAAATTTTCCTAATCTTTCTGTTCAAGCGCCATCTAC”, for which the binding signal (RPM ratio (pull-down/input)) is 0.329.

With “GATGATTGTTCTCCCAGCTGATGAATTCTACGGGTCGAGTAAACAAATTTTCCTAATCTTTCTGTTCAAGCGCCATCTAC”, the binding signal (RPM ratio (pull-down/input)) worked out at 0.199.

In the case of “GATGATTGTTCTCCCAGCTGATGAATTGCGTAATTCGAGTAAACAAATTTTCCTAATCTTTCTGTTCAAGCGCCATCTAC”, the binding signal (RPM ratio (pull-down/input)) was determined as 1.58.

As to “GATGATTGTTCTCCCAGCTGATGAATTATCTGGATCGAGTAAACAAATTTTCCTAATCTTTCTGTTCAAGCGCCATCTAC”, the binding signal (RPM ratio (pull-down/input)) worked out at 0.217.

Consider “GATGATTGTTCTCCCAGCTGATGAATTTGCCCCGTCGAGTAAACAAATTTTCCTAATCTTTCTGTTCAAGCGCCATCTAC”, for which the binding signal (RPM ratio (pull-down/input)) was 0.335.

Regarding “GATGATTGTTCTCCCAGCTGATGAATTATTGGTATCGAGTAAACAAATTTTCCTAATCTTTCTGTTCAAGCGCCATCTAC”, the binding signal (RPM ratio (pull-down/input)) was 1.68.

Regarding “GATGATTGTTCTCCCAGCTGATGAATTCCTAATCTCGAGTAAACAAATTTTCCTAATCTTTCTGTTCAAGCGCCATCTAC”, the binding signal (RPM ratio (pull-down/input)) was found to be 0.291.

With “GATGATTGTTCTCCCAGCTGATGAATTGTCTCTATCGAGTAAACAAATTTTCCTAATCTTTCTGTTCAAGCGCCATCTAC”, the binding signal (RPM ratio (pull-down/input)) stood at 0.469.

With “GATGATTGTTCTCCCAGCTGATGAATTGTGAATTTCGAGTAAACAAATTTTCCTAATCTTTCTGTTCAAGCGCCATCTAC”, the binding signal (RPM ratio (pull-down/input)) worked out at 2.02.

With “GATGATTGTTCTCCCAGCTGATGAATTGAAGGGTTCGAGTAAACAAATTTTCCTAATCTTTCTGTTCAAGCGCCATCTAC”, the binding signal (RPM ratio (pull-down/input)) was found to be 0.354.

For the sequence “GATGATTGTTCTCCCAGCTGATGAATTGTTCGGTTCGAGTAAACAAATTTTCCTAATCTTTCTGTTCAAGCGCCATCTAC”, the binding signal (RPM ratio (pull-down/input)) came out at 0.379.

In the case of “GATGATTGTTCTCCCAGCTGATGAATTGTGTGAGTCGAGTAAACAAATTTTCCTAATCTTTCTGTTCAAGCGCCATCTAC”, the binding signal (RPM ratio (pull-down/input)) came out at 2.81.

Turning to “GATGATTGTTCTCCCAGCTGATGAATTGTACGCGTCGAGTAAACAAATTTTCCTAATCTTTCTGTTCAAGCGCCATCTAC”, the binding signal (RPM ratio (pull-down/input)) came out at 0.669.

As to “GATGATTGTTCTCCCAGCTGATGAATTATCCACGTCGAGTAAACAAATTTTCCTAATCTTTCTGTTCAAGCGCCATCTAC”, the binding signal (RPM ratio (pull-down/input)) was 0.283.

For the sequence “GATGATTGTTCTCCCAGCTGATGAATTTACCTAATCGAGTAAACAAATTTTCCTAATCTTTCTGTTCAAGCGCCATCTAC”, the binding signal (RPM ratio (pull-down/input)) was 0.617.

Consider “GATGATTGTTCTCCCAGCTGATGAATTGGATGTCTCGAGTAAACAAATTTTCCTAATCTTTCTGTTCAAGCGCCATCTAC”, for which the binding signal (RPM ratio (pull-down/input)) was 1.48.

For the sequence “GATGATTGTTCTCCCAGCTGATGAATTTTATATTTCGAGTAAACAAATTTTCCTAATCTTTCTGTTCAAGCGCCATCTAC”, the binding signal (RPM ratio (pull-down/input)) was 0.903.

On to “GATGATTGTTCTCCCAGCTGATGAATTGCCAAAGTCGAGTAAACAAATTTTCCTAATCTTTCTGTTCAAGCGCCATCTAC”, for which the binding signal (RPM ratio (pull-down/input)) is 0.348.

As to “GATGATTGTTCTCCCAGCTGATGAATTATAATTCTCGAGTAAACAAATTTTCCTAATCTTTCTGTTCAAGCGCCATCTAC”, the binding signal (RPM ratio (pull-down/input)) was determined as 0.584.

Turning to “GATGATTGTTCTCCCAGCTGATGAATTAAGATCCTCGAGTAAACAAATTTTCCTAATCTTTCTGTTCAAGCGCCATCTAC”, the binding signal (RPM ratio (pull-down/input)) turned out to be 0.315.

Regarding “GATGATTGTTCTCCCAGCTGATGAATTGTTAGTATCGAGTAAACAAATTTTCCTAATCTTTCTGTTCAAGCGCCATCTAC”, the binding signal (RPM ratio (pull-down/input)) is 4.23.

Turning to “GATGATTGTTCTCCCAGCTGATGAATTCCCAATTTCGAGTAAACAAATTTTCCTAATCTTTCTGTTCAAGCGCCATCTAC”, the binding signal (RPM ratio (pull-down/input)) was 0.285.

As to “GATGATTGTTCTCCCAGCTGATGAATTAGCGTCCTCGAGTAAACAAATTTTCCTAATCTTTCTGTTCAAGCGCCATCTAC”, the binding signal (RPM ratio (pull-down/input)) came out at 1.18.

As for “GATGATTGTTCTCCCAGCTGATGAATTGAGCCGCTCGAGTAAACAAATTTTCCTAATCTTTCTGTTCAAGCGCCATCTAC”, the binding signal (RPM ratio (pull-down/input)) amounted to 1.04.

In the case of “GATGATTGTTCTCCCAGCTGATGAATTGATGTGATCGAGTAAACAAATTTTCCTAATCTTTCTGTTCAAGCGCCATCTAC”, the binding signal (RPM ratio (pull-down/input)) was found to be 0.886.

For “GATGATTGTTCTCCCAGCTGATGAATTAAAGGAGTCGAGTAAACAAATTTTCCTAATCTTTCTGTTCAAGCGCCATCTAC”, the binding signal (RPM ratio (pull-down/input)) turned out to be 0.228.

Regarding “GATGATTGTTCTCCCAGCTGATGAATTAATCTCGTCGAGTAAACAAATTTTCCTAATCTTTCTGTTCAAGCGCCATCTAC”, the binding signal (RPM ratio (pull-down/input)) came to 0.222.

“GATGATTGTTCTCCCAGCTGATGAATTCTAGACCTCGAGTAAACAAATTTTCCTAATCTTTCTGTTCAAGCGCCATCTAC”: the binding signal (RPM ratio (pull-down/input)) worked out at 0.236.

As to “GATGATTGTTCTCCCAGCTGATGAATTGGCGCTCTCGAGTAAACAAATTTTCCTAATCTTTCTGTTCAAGCGCCATCTAC”, the binding signal (RPM ratio (pull-down/input)) turned out to be 0.52.
